Where “and” joins values, the source holds several entries; their conditions need not be identical. Equal entries are not always repeated. Among all 110,000 compounds or so, about 230 (0.21%) showed an effect of 50% or more. This is one part of the list.
Target: DPAP1 (Plasmodium falciparum, UniProt Q8IIJ9)
Test: primary screen, percent inhibition; read by cleavage of a fluorogenic dipeptide substrate; higher = more effect of the substance
Set-up: species or system P. falciparum D10 trophozoite lysates; single well
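Note: 30 min substrate incubation versus DMSO and 10 µM JCP410 controls.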

Sequence of DPAP1 (Q8IIJ9 whole entry, looked up): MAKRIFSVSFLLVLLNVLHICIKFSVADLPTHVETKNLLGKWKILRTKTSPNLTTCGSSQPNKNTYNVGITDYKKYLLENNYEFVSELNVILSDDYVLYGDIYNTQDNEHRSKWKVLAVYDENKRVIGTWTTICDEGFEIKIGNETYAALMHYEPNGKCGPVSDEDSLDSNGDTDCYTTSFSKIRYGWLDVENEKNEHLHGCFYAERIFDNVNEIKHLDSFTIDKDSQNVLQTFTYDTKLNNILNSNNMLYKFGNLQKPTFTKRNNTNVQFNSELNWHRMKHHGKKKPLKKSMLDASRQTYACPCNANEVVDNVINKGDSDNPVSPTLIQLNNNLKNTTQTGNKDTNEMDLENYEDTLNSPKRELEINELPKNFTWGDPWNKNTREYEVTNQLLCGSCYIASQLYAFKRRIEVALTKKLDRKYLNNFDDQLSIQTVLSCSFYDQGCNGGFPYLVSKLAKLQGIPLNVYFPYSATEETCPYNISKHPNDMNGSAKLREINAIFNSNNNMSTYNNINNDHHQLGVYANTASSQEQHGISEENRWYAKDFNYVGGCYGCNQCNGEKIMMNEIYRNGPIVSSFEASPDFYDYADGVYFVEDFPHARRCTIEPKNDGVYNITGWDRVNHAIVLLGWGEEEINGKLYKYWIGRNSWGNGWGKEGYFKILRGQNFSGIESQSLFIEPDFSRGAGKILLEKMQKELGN

Row | SMILES | % Inhibition @ 10 uM
1 | O=S(=O)(CCO)c1ccc2oc(O)nc2c1 | 2.55%
2 | O=C(NCc1ccc(-n2cccc2)cc1)c1nc(-c2cccs2)no1 | -0.403%
3 | Cc1ccc(-c2cn3c(n2)sc2cc(C(=O)NCc4ccccn4)ccc23)cc1 | -4.18%
4 | COc1ccc(C(=O)Nc2cc(C)ccc2C)cc1Br | -4.02%
5 | CC(CCCC(C)(C)O)CC1OCCO1 (centres unmarked) | 6.8%
6 | CC(C)Oc1ccccc1C1CC(=O)NC1=O (centres unmarked) | -3.93%
7 | CSCCCN(C)CCc1ccccn1 | -7.56%
8 | O=C(NC1CCS(=O)(=O)C1)/C(=C\c1ccc(F)cc1)NC(=O)c1ccccc1 (centres unmarked) | -0.988%
9 | COc1ccc(Cl)cc1-n1nnc(-c2nc(-c3cccnc3)no2)c1N | 4.73%
10 | O=C(O)CCN(CC(=O)O)C(=O)c1ccccc1 | 2.59%
11 | CC(=O)c1c(C)oc2ccc(N(C(=O)c3ccncc3)S(=O)(=O)c3c(C)cc(C)cc3C)cc12 | 5.03%
12 | C=CCN1C(=O)/C(=C/c2ccc3ccccc3n2)S/C1=N/S(=O)(=O)c1ccc(C)cc1 | 4.84%
13 | COc1cc(CNCC2CCCO2)ccc1OCc1ccc(Cl)cc1 (centres unmarked) | -3.45%
14 | COC(=O)c1c(-c2ccc(F)cc2)noc1N | 2.34%
15 | Cc1nn(CC(=O)Nc2cc(C)n(Cc3ccc(F)cc3)n2)c(C)c1Cl | -1.85%
16 | COc1ccc(NC(=O)c2ccccc2OC)cc1OC | 5.09%
17 | CCOC(=O)N1CCN(S(=O)(=O)c2cc(C)c(C)cc2OC)CC1 | 0.64%
18 | Cc1cccc(OCc2nc(-c3nonc3N)no2)c1C | 3.96%
19 | CCOC(=O)c1c(C)c(-c2ccccc2)n(CC(=O)Nc2ccc(C)cn2)c1C | -1.66%
20 | O=c1c2cccnc2nc(SCc2cccc(F)c2)n1Cc1ccccc1 | -1.66%
21 | CC(O)c1ccc(NC(=O)c2cnn3c2NC(c2cccs2)CC3C(F)(F)F)cc1 (centres unmarked) | -4.4%
22 | CNC(=O)Cn1cccc1C(=O)c1ccccc1 | 4.33%
23 | OCCN1CCN(C(c2cccc(Cl)c2)c2ccccc2Cl)CC1 (centres unmarked) | -8.26%
24 | O=C(C1=C(O)C(=O)N(CCc2c[nH]c3ccccc23)C1c1cccnc1)c1ccccc1 (centres unmarked) | 2.13%
25 | COc1ccc(CCNCc2c(C(=O)O)n(C)c3ccccc23)cc1OC | 3.54%
26 | COc1ccc(/C=C2\S/C(=N/c3cccc(C(=O)O)c3)N(C)C2=O)cc1C | -1.57%

Row | SMILES | % Inhibition @ 10 uM
27 | Cc1ccc(/C=C2\CCCC3=C2Nc2nnnn2C3c2ccc(C)cc2)cc1 (centres unmarked) | 3.32%
28 | CCC1CCCCN1C(=O)c1cc(-c2ccc(F)cc2)on1 (centres unmarked) | 1.37%
29 | COc1ccc(NC(=O)[C@@H]2C3C=CC(O3)[C@@H]2C(=O)O)cc1 (some centres unmarked) | -2.29%
30 | COCCNC(=O)CS(=O)Cc1nc(-c2cccs2)oc1C (centres unmarked) | 3.19%
31 | CC(C)(COC(=O)c1cccs1)NC(=O)C12CC3CC(CC(C3)C1)C2 | -0.403%
32 | CCc1ccc(-n2c(C)nc3cc(C(=O)NCc4cccnc4)ccc32)cc1 | -0.256%
33 | COc1cc(C(=O)NC(C(=O)O)C(C)C)cc(OC)c1OC (centres unmarked) | -4.06%
34 | CCCC(=O)Nc1ccc(Cl)c(NC(=O)c2cccnc2)c1 | 0.528%
35 | Cc1cccc2c(O)c(NC(=O)NCc3ccc(C(F)(F)F)cc3)cnc12 | -6.43%
36 | CCOC(=O)c1sc(N2C(=O)C(O)=C(C(=O)c3ccc(F)cc3)C2c2ccc(OC)cc2)nc1C (centres unmarked) | 5.37%
37 | COc1cc(OC)c(CN2CCCCCC2)cc1Br | -6.36%
38 | CC(=O)NC(C)c1nc2ccccc2n1CC(C)C (centres unmarked) | -7.35%
39 | C/C(=N\N=C\c1c[nH]c2ccccc12)c1nnn(-c2nonc2N)c1C | -3.48%
40 | CCOC(=O)c1c(NC(C)=O)sc2c1CCC(Sc1ccccc1)C2=O (centres unmarked) | 0.989%
41 | O=C(CCc1nnc2n(CCc3ccccc3)c(=O)c3ccccc3n12)NCc1ccccc1Cl | -0.692%
42 | C=C(C)CN(CC)Cc1cc([N+](=O)[O-])ccc1Cl | -1.78%
43 | OCCN1CCN(Cc2ccccc2F)CC1 | -13.2%
44 | Cc1ccc(CNC(=O)CSCc2ccc(C)cc2)cc1 | -8.73%
45 | O=C1C(Cl)=C(NCC2CCCO2)C(=O)N1Cc1ccccc1 (centres unmarked) | 4.75%
46 | Cc1ccccc1-c1nc(CS(=O)(=O)CC(=O)NCC2CCCO2)c(C)o1 (centres unmarked) | -3.7%
47 | OC(c1ccccc1)(c1ccccc1)C1CCCCCN1 (centres unmarked) | 1.57%
48 | Cc1ccc(N2C(=O)CC(NCCN3CCOCC3)C2=O)cc1 (centres unmarked) | -7.61%
49 | O=C(CN1C(=O)c2ccccc2C1=O)Nc1cnc2ccccc2c1 | -3.21%
50 | COc1ccc(NC(=O)CCCOc2ccc(Cl)cc2Cl)c(OC)c1 | -0.865%
51 | COc1ccc(C2C3=C(O)CC(C)(C)CC3=Nc3ccccc3N2C(=O)C(F)(F)F)cc1 (centres unmarked) | -1.44%
52 | Cc1sc(NC(=O)C2C3CCC(C3)C2C(=O)O)c(C(N)=O)c1-c1ccccc1 (centres unmarked) | -2.6%

Row | SMILES | % Inhibition @ 10 uM
53 | Cc1ccccc1NS(=O)(=O)c1ccc(C2CCCCC2)cc1 | -5.41%
54 | COc1ccc(-c2noc(CCC(=O)NCC3CCCO3)n2)cc1 (centres unmarked) | -2.21%
55 | CC(C)(C)NC(=O)C1CCN(S(=O)(=O)c2ccccc2)CC1 | -7.56%
56 | CCOC(=O)C1=C(Cn2nnc(C(=O)OC)c2C(=O)OC)NC(=O)NC1c1ccccc1 (centres unmarked) | 0.813%
57 | O=C1c2ccccc2C(=O)N1c1cc([N+](=O)[O-])ccc1F | 4.51%
58 | COc1ccc(CC(=O)n2nc(-c3ccccc3)nc2NCc2ccco2)cc1 | -4.78%
59 | CCOc1ccc(CC(=O)Nc2ccccc2C(N)=O)cc1OCC | 1.28%
60 | CC(=O)OC(C)(C#CCN1CCOCC1)C(C)(C)C (centres unmarked) | -2.32%
61 | CC(C)Cc1ccc(C#N)c(SCC(N)=O)n1 | -0.13%
62 | COc1ccc(-n2c(CNCc3ccco3)nc3ccccc3c2=O)cc1 | -1.51%
63 | O=C(CCCn1ncn2c(cc3occc32)c1=O)NCc1ccccn1 | -2%
64 | COc1ccc(C(=O)C2=C(O)C(=O)N(Cc3cccnc3)C2c2ccc(C)cc2)cc1C (centres unmarked) | 4.11%
65 | CCc1ccc(NC(=O)c2c(-c3ccccc3)noc2C)cc1 | -4.39%
66 | Cc1cccc(C)c1NC(=O)Nc1cccc(Cl)c1 | -2%
67 | Cc1cc(C)cc(Oc2nc3c(C)cccn3c(=O)c2/C=C(\C#N)C(=O)NCc2ccccc2)c1 | 2%
68 | O=C(CCCCC(=O)Nc1cccnc1Cl)Nc1cccnc1Cl | -1.37%
69 | CCc1nc(C)c(C#N)c2cc(OC)c(OC)cc12 | -1.86%
70 | O=C(c1ccco1)N1CCN(C/C=C/c2ccccc2)CC1 | -1.98% and 2.32%
71 | CN1CCN(c2ccc3nnc(CCC(=O)NCC4CCN(Cc5ccc(F)cc5)CC4)n3n2)CC1 | -0.826%
72 | CO/C(O)=C1/C(C)=NC2=C(C(=O)CC(C)(C)C2)C1c1ccc(-c2ccccc2)cc1 (centres unmarked) | 2.51%
73 | Cc1ccc(C2=NC(=O)OC2(C)C)c(C)c1 | 4.88%
74 | Cc1c(C(=O)N2CCN(C(c3ccccc3)c3ccccc3)CC2)sc(N)c1C#N | 4.88%
75 | COCCCNC(=O)c1ccc2c(c1)ncn2-c1ccc(C)cc1C | 1.42%
76 | N#Cc1c(NC(=O)c2ccc(S(=O)(=O)c3ccccc3)cc2)sc2c1CCC2 | -2.87%
77 | O=C(NCc1ccc2c(c1)OCO2)[C@@H](c1ccccc1)N1Cc2ccccc2C1=O | 4.54%
78 | CCOc1ccc(CNCc2ccccn2)cc1 | 0.032%

Row | SMILES | % Inhibition @ 10 uM
79 | O=C1c2cccnc2C(=O)N1c1ccc(OC(F)(F)F)cc1 | -3.95%
80 | c1cc(-c2nc3ccccc3[nH]2)nc(-c2nc3ccccc3[nH]2)c1 | -4.78%
81 | Cc1cc(C)c(S(=O)(=O)NCc2nc3nc(C)cc(C)n3n2)c(C)c1 | -7.97%
82 | CC(C)CC(NC(=O)c1ccc(NC(=N)N)cc1)C(=O)NCC#N (centres unmarked) | 5.05%
83 | Clc1ccccc1-c1nc2nnnn2c2ccc(Br)cc12 | 8.98%
84 | CCOc1ccc2nc(C)c(CN(C)Cc3ccccc3)c(O)c2c1 | -1.25%
85 | Cc1cccc(Oc2nc3ccccn3c(=O)c2/C=C(\C#N)c2nc3ccccc3[nH]2)c1 | 6.78%
86 | O=C(CCSc1nc2cc(Cl)ccc2o1)N1CCOCC1 | -3.45%
87 | CN(C)CCN(Cc1ccccc1)Cc1ccc(Br)cc1 | -3.58%
88 | c1sc2c(c1CN1CCCCCC1)CCCC2 | -0.154%
89 | OCCn1c(CCCCc2nc3ccccc3n2CCO)nc2ccccc21 | 1.74%
90 | CCCCOC(=O)c1ccc(NC(=O)OC)cc1 | 3.35%
91 | COc1cc(NC(=O)c2sc3nc(-c4cccs4)ccc3c2N)cc(OC)c1OC | 6.65%
92 | Cc1nn(C(=O)CCC(=O)NCc2cccs2)c2ccccc12 | -4.71%
93 | COc1ccc(Cl)cc1N(CC(=O)NC1CC2CCC1C2)S(=O)(=O)c1ccccc1 (centres unmarked) | 0.00477%
94 | Cc1cc2c(c(=O)o1)C(c1ccc(Br)cc1)C(C#N)=C(N)O2 (centres unmarked) | 4.66%
95 | NC(=O)C1CCN(C(=O)/C(=C/c2ccco2)NC(=O)c2ccccc2)CC1 | -0.996%
96 | CC(C)CCNc1sc(S(C)(=O)=O)nc1S(=O)(=O)c1ccc(Cl)cc1 | -2.25%
97 | O=C1CCN(c2cccc(Cl)c2)N1 | 8.73%
98 | CC1(C)CC(=O)C2=C(C1)N(C1CCCCC1)C(=O)C2(NC(=O)c1ccccc1)C(F)(F)F (centres unmarked) | -3.33%
99 | O=C(NCc1ccc2c(c1)OCO2)c1ccc2c(c1)OCO2 | 2.23%
100 | CCOc1ccc(-c2cc(NC(=O)c3noc4c3COc3ccccc3-4)on2)cc1OCC | -1.72%
101 | CCN1CCN(c2ccc([N+](=O)[O-])cn2)CC1 | -1.56%

— paper PMC6919601, “Identification of Plasmodium dipeptidyl aminopeptidase allosteric inhibitors by high throughput screening” (PLoS ONE, 2019)
